From the supplement of paper PMC12217912
Some of the results follow. Sequences were assembled here from the parent chain. Inactive controls read about 0.05.

B1: TEV protease; numbered along this chain (parent)
chain: MGESLFKGPRDYNPISSSICHLTNESDGHTTSLYGIGFGPFIITNKHLFRRNNGTLVVQSLHGVFKVKDTTTLQQHLVDGRDMIIIRMPKDFPPFPQKLKFREPQREERICLVTTNFQTKSMSSMVSDTSCTFPSGDGIFWKHWIQTKDGQCGSPLVSTRDGFIVGIHSASNFTNTNNYFTSVPKNFMELLTNQEAQQWVSGWRLNADSVLWGGHKVFMVKPEEPFQPVKEATQL

Variants of: B1
Test: raw area under fraction-flipped curve 0-4 h after induction (AUC4h, not background-subtracted), DNA-recorder readout of cleavage of the substrate (dimensionless); higher = more cleavage of the substrate by the protease variant
Details: temperature: 34 °C; time window: 0-4 h after rhamnose induction
Method: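 In vivo DNA recorder in E. coli TOP10(DE3) ΔrhaA at 34 °C. Each TEVp single-site mutant (parent TEVp 0) is paired with a single-site variant of the 7-mer TEVs (canonical ENLYFQ|S). The substrate sits between flexible linkers in a Bxb1-sfGFP-TEVs-SsrA fusion, so cleavage stabilises Bxb1 and speeds flipping of a recombination array, read by NGS. The value is the raw area under the fraction-flipped curve over 0-4 h after rhamnose induction (AUC4h), with ≥20 reads per time point. It is not background-subtracted; inactive controls average about 0.047.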
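Also: Bxb1 expression induced with 0.2% (w/v) L-rhamnose at OD600 near 0.5, cultures sampled hourly, flipped fraction per protease–substrate barcode pair counted by paired-end Illumina sequencing.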

MGESLFKGPRDYNPISSSICHLTNESDGHTTSLYGIGFGPFIITNKHLFRRNNGTLVVQSLHGVFKVKDTTTLQQHLVDGRDMIIIRMPKDFPPFPQKLKFREPQREERICLVTTNFQTKSMSSMVSDTSCTPPSGDGIFWKHWIQTKDGQCGSPLVSTRDGFIVGIHSASNFTNTNNYFTSVPKNFMELLTNQEAQQWVSGWRLNADSVLWGGHKVFMVKPEEPFQPVKEATQL [F133P]
area with substrate ENLYFQA: 0.0642
area with substrate ENLYFQC: 0.0758
area with substrate ENLYFQD: 0.0752
area with substrate ENLYFQG: 0.0381
area with substrate ENLYFQI: 0.0391
area with substrate ENLYFQK: 0.0388
area with substrate ENLYFQL: 0.0509
area with substrate ENLYFQM: 0.0602
area with substrate ENLYFQN: 0.0618
area with substrate ENLYFQP: 0.0505
area with substrate ENLYFQR: 0.0569
area with substrate ENLYFQS: 0.0689
area with substrate ENLYFQT: 0.0572
area with substrate ENLYFQY: 0.061

MGESLFKGPRDYNPISSSICHLTNESDGHTTSLYGIGFGPFIITNKHLFRRNNGTLVVQSLHGVFKVKDTTTLQQHLVDGRDMIIIRMPKDFPPFPQKLKFREPQREERICLVTTNFQTKSMSSMVSDTSCTFWSGDGIFWKHWIQTKDGQCGSPLVSTRDGFIVGIHSASNFTNTNNYFTSVPKNFMELLTNQEAQQWVSGWRLNADSVLWGGHKVFMVKPEEPFQPVKEATQL [P134W]
area with substrate ENLYFQA: 0.0869
area with substrate ENLYFQC: 0.0643
area with substrate ENLYFQD: 0.0504
area with substrate ENLYFQG: 0.0594
area with substrate ENLYFQI: 0.0389
area with substrate ENLYFQK: 0.0205
area with substrate ENLYFQM: 0.0646
area with substrate ENLYFQN: 0.0647
area with substrate ENLYFQP: 0.0716
area with substrate ENLYFQS: 0.0683
area with substrate ENLYFQY: 0.0476

MGESLFKGPRDYNPISSSICHLTNESDGHTTSLYGIGFGPFIITNKHLFRRNNGTLVVQSLHGVFKVKDTTTLQQHLVDGRDMIIIRMPKDFPPFPQKLKFREPQREERICLVTTNFQTKSMSSMVSDTSCTFPFGDGIFWKHWIQTKDGQCGSPLVSTRDGFIVGIHSASNFTNTNNYFTSVPKNFMELLTNQEAQQWVSGWRLNADSVLWGGHKVFMVKPEEPFQPVKEATQL [S135F]
area with substrate ENLYFQA: 0.0643
area with substrate ENLYFQC: 0.0505
area with substrate ENLYFQD: 0.0643
area with substrate ENLYFQE: 0.053
area with substrate ENLYFQG: 0.0637
area with substrate ENLYFQH: 0.0522
area with substrate ENLYFQI: 0.0435
area with substrate ENLYFQK: 0.0584
area with substrate ENLYFQL: 0.0582
area with substrate ENLYFQN: 0.0596
area with substrate ENLYFQP: 0.0617
area with substrate ENLYFQR: 0.0414
area with substrate ENLYFQS: 0.0648
area with substrate ENLYFQT: 0.0624
area with substrate ENLYFQW: 0.0689

MGESLFKGPRDYNPISSSICHLTNESDGHTTSLYGIGFGPFIITNKHLFRRNNGTLVVQSLHGVFKVKDTTTLQQHLVDGRDMIIIRMPKDFPPFPQKLKFREPQREERICLVTTNFQTKSMSSMVSDTSCTFPSCDGIFWKHWIQTKDGQCGSPLVSTRDGFIVGIHSASNFTNTNNYFTSVPKNFMELLTNQEAQQWVSGWRLNADSVLWGGHKVFMVKPEEPFQPVKEATQL [G136C]
area with substrate ENLYFQA: 0.0914
area with substrate ENLYFQC: 0.117
area with substrate ENLYFQD: 0.0741
area with substrate ENLYFQF: 0.0963
area with substrate ENLYFQG: 0.0075
area with substrate ENLYFQH: 0.0871
area with substrate ENLYFQI: 0.053
area with substrate ENLYFQK: 0.0717
area with substrate ENLYFQL: 0.0579
area with substrate ENLYFQM: 0.11
area with substrate ENLYFQN: 0.0786
area with substrate ENLYFQP: 0.0461
area with substrate ENLYFQR: 0.0355
area with substrate ENLYFQS: 0.111
area with substrate ENLYFQT: 0.0622
area with substrate ENLYFQY: 0.0743

MGESLFKGPRDYNPISSSICHLTNESDGHTTSLYGIGFGPFIITNKHLFRRNNGTLVVQSLHGVFKVKDTTTLQQHLVDGRDMIIIRMPKDFPPFPQKLKFREPQREERICLVTTNFQTKSMSSMVSDTSCTFPSGVGIFWKHWIQTKDGQCGSPLVSTRDGFIVGIHSASNFTNTNNYFTSVPKNFMELLTNQEAQQWVSGWRLNADSVLWGGHKVFMVKPEEPFQPVKEATQL [D137V]
area with substrate ENLYFQA: 0.0958
area with substrate ENLYFQC: 0.117
area with substrate ENLYFQG: 0.0689
area with substrate ENLYFQH: 0.0745
area with substrate ENLYFQI: 0.049
area with substrate ENLYFQL: 0.0593
area with substrate ENLYFQM: 0.097
area with substrate ENLYFQN: 0.0779
area with substrate ENLYFQP: 0.0605
area with substrate ENLYFQR: 0.0603
area with substrate ENLYFQS: 0.106
area with substrate ENLYFQT: 0.058
area with substrate ENLYFQV: 0.0612

MGESLFKGPRDYNPISSSICHLTNESDGHTTSLYGIGFGPFIITNKHLFRRNNGTLVVQSLHGVFKVKDTTTLQQHLVDGRDMIIIRMPKDFPPFPQKLKFREPQREERICLVTTNFQTKSMSSMVSDTSCTFPSGDGIVWKHWIQTKDGQCGSPLVSTRDGFIVGIHSASNFTNTNNYFTSVPKNFMELLTNQEAQQWVSGWRLNADSVLWGGHKVFMVKPEEPFQPVKEATQL [F140V]
area with substrate ENLYFQA: 0.0634
area with substrate ENLYFQC: 0.0746
area with substrate ENLYFQD: 0.0664
area with substrate ENLYFQE: 0.0523
area with substrate ENLYFQF: 0.0444
area with substrate ENLYFQG: 0.0666
area with substrate ENLYFQI: 0.0608
area with substrate ENLYFQK: 0.056
area with substrate ENLYFQL: 0.0687
area with substrate ENLYFQM: 0.0585
area with substrate ENLYFQN: 0.0611
area with substrate ENLYFQP: 0.0563
area with substrate ENLYFQQ: 0.0566
area with substrate ENLYFQR: 0.0565
area with substrate ENLYFQS: 0.0685
area with substrate ENLYFQT: 0.0553
area with substrate ENLYFQV: 0.0456
area with substrate ENLYFQW: 0.0546
area with substrate ENLYFQY: 0.0591

MGESLFKGPRDYNPISSSICHLTNESDGHTTSLYGIGFGPFIITNKHLFRRNNGTLVVQSLHGVFKVKDTTTLQQHLVDGRDMIIIRMPKDFPPFPQKLKFREPQREERICLVTTNFQTKSMSSMVSDTSCTFPSGDGIFWWHWIQTKDGQCGSPLVSTRDGFIVGIHSASNFTNTNNYFTSVPKNFMELLTNQEAQQWVSGWRLNADSVLWGGHKVFMVKPEEPFQPVKEATQL [K142W]
area with substrate ENLYFQA: 0.0861
area with substrate ENLYFQD: 0.0523
area with substrate ENLYFQF: 0.0846
area with substrate ENLYFQH: 0.0587
area with substrate ENLYFQI: 0.0517
area with substrate ENLYFQK: 0.0952
area with substrate ENLYFQL: 0.0536
area with substrate ENLYFQM: 0.0593
area with substrate ENLYFQN: 0.0553
area with substrate ENLYFQR: 0.0668
area with substrate ENLYFQS: 0.0736
area with substrate ENLYFQT: 0.0568
area with substrate ENLYFQV: 0.06
area with substrate ENLYFQW: 0.0757

MGESLFKGPRDYNPISSSICHLTNESDGHTTSLYGIGFGPFIITNKHLFRRNNGTLVVQSLHGVFKVKDTTTLQQHLVDGRDMIIIRMPKDFPPFPQKLKFREPQREERICLVTTNFQTKSMSSMVSDTSCTFPSGDGIFWKHWIDTKDGQCGSPLVSTRDGFIVGIHSASNFTNTNNYFTSVPKNFMELLTNQEAQQWVSGWRLNADSVLWGGHKVFMVKPEEPFQPVKEATQL [Q146D]
area with substrate ENLYFQA: 0.0893
area with substrate ENLYFQD: 0.0714
area with substrate ENLYFQG: 0.0878
area with substrate ENLYFQI: 0.0534
area with substrate ENLYFQK: 0.0651
area with substrate ENLYFQL: 0.0631
area with substrate ENLYFQN: 0.0692
area with substrate ENLYFQP: 0.0565
area with substrate ENLYFQR: 0.0577
area with substrate ENLYFQS: 0.105
area with substrate ENLYFQW: 0.0664
area with substrate ENLYFQY: 0.0693
